# Source: publication PMC10726135
# The list shows a part of the results. At the low end of the ranking, values are background and their order means little. Measured with an extract: partners may take part in the binding.
# Molecular target: T1, HNF4alpha8 (COS-7 nuclear extract) (UniProt P41235-5)
# T1 sequence: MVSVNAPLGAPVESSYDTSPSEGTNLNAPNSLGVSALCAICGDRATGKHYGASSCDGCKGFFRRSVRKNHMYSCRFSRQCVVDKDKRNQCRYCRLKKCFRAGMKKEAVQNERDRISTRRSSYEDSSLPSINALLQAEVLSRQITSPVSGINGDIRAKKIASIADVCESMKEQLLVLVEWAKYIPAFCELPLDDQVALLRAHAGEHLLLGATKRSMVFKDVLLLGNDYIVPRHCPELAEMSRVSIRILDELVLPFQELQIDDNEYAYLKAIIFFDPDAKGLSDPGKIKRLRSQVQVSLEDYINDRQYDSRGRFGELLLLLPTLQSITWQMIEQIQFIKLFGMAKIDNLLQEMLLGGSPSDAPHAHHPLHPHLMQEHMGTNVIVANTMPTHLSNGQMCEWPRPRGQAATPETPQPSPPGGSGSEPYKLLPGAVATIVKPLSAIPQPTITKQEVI
# Assay: protein-binding microarray
# Conditions: COS-7 nuclear extract on double-stranded Agilent 4x180k PBM; binding buffer, salt, pH and temperature not given; high values mean tight binding; double strand, one strand shown; sequences stand for … in …GCCTAGGGAGATTAGAGTATCGGTCGA
row,Sequence,binding signal (log2 normalized intensity)
1,CACCTATGTGGTCAAAACTTTGTTTGAGTT,1.38
2,CATTCATACATTTGCCTGAACTTTAAACTG,4.5
3,AGTTAGCTACACGGGCCTGAAAACTGGAGG,-1.41
4,ACTCCTGATAGCTAGAGAGTTCAAGAAGGG,-1.23
5,GAGGCTCTTATCAGCTGCAGGGATTATCAA,-1.28
6,AAGAAACATTCCAGACAGGAGGATTCCTGA,-1.29
7,GGGTCCAGGTGCTGGGATGATTCCCTTATC,1.3
8,GAATGCAACCACACCAACATGGACTTTGTC,6.59
9,CCCTCCTTAAGACCTAGATGGAATGTTGTG,1.41
10,TCCATATTGCAGACAGCATAGGAAGTGGGG,-1.3
11,AACTTTGTTTGAGTTCCAAAGTCCATGTTC,7.61
12,AGCAGAAAAGCTGTACCAATTATTGCGAGT,-1.32
13,CTCCGCTGAAGTCAATGTCAGCTAGAGGCC,-0.944
14,TTTTCCAGCAGCGGATCCAACCTGTTCTTT,0.593
15,TGAACTTTGCCTTGTACACAAAGACATTGC,2.93
16,TGACGGTATGTGAATGCCTGGGCATGGCTG,-1.3
17,CCTTTCTGCCCTTTGAAGCATGTGATCTAC,2.7
18,TCTGATACACTCGCCGTGTGACTGAGGGCT,-1.28
19,GAGCCCCTGTGATACAACGGTTCAAAGGAC,3.13
20,CGGAGAGCAGGGCGTGGACTTCGCTCCGCC,5.75
21,AGCCAGAGGCAGCAAGGTCAAAGTGCGTCC,6.33
22,AACTCACTACAAACGCCTCTAAGCTCTTTC,-1.33
23,GGTCTGTTTGTGAAACAGTGGGCAATATGA,1.18
24,TCAGTTTGGCTCTTATGTCCCTCCTGACCT,3.83

row,Sequence,binding signal (log2 normalized intensity)
1,TTCCCAGGAATTGGCCTGTGCCTCAATTGC,0.807
2,TTCCTTTCCCTTTATTTAGCCTCACTAAGA,-0.859
3,CCACCCACACTGCAGCAAAACTTTAGGACT,-1.21
4,AAATCCCCAAACTTAAAAGAAGCTACTAGC,-1.36
5,TTTCTAAGAAAGTTCAGCCCTTAGGACCAG,-0.943
6,ATTGGGATGGCAGCTTCATTCCAGCCCCAT,1.28
7,GAGGAAACAAACAGATATGCATTTGTCTCT,-1.38
8,TGTGTGTAGGCATAGGAGAAACACATAAAC,-1.14
9,GTCAGTCTTTGTTCTAGTAAGGCCTTCAAA,0.595
10,TTCACCAAGAGGGAAAAGATGGTCTCTCAC,-0.945
11,TGACCTGCAAGGTTCTCTCTTCTTCCCCTC,2.5
12,GCGGGGCTCAAAGGCGGCCCGGGTGGGGGT,-1.24
13,GAAATCATTCCAGAAAGACAGCTGCATTTG,-1.29
14,CAGCAATAAATACCAAAGCCATGGCTCCAA,-1.44
15,CCCCCCACCCCACACACACACAGCATTCCA,5.24
16,ACCCCTGAATAGGTCTTGGAATGTGACGGC,1.5
17,GCAAGGAATTCAACCCTTGTCACTTTCCCT,1.82
18,ATCAAAACCTTCATCTCTCTTTGTTGACAT,1.44
19,CTTTGAAGCATGTGATCTACTCCCTGTTCT,0.566
20,TTCCTGGTATCAGAGTGGAGCCAGATGCAC,-0.591
21,GCAGAGGCTGGGGCCCTCTTCCAGCTGAGA,-1.2
22,GGCCCCCACTAGAGAGACCGTCCCTGGGTA,3.16
23,TATCCCTCCGCCTCCCTCCCCCTTTCTCCG,4.75
24,TGGGAAAAGGCGCATGCATAACCAAACAGA,-0.788

row,Sequence,binding signal (log2 normalized intensity)
1,TCATATATGCATTTGTCTCAGGTGGGCAGA,1.23
2,TGGGAGAACCTGTGCTTCTGGTTCTGGACT,2.48
3,AATACTTATGATATGAAGCATTGCTTGAGT,0.754
4,GCCCTTCCCCCCTCTGCAGCCTTACCCAGT,4.44
5,AGAAGTAGGATAAGGGTAGGGCCAATCTCT,-1.38
6,GCTCTGGAATCTCTGGATTTCAGGTACACA,0.947
7,ATTATGGTAGGCAGCCTCTGAGATGGACTC,3.96
8,TAGATAACTCCAAGATTAGTGGGAAAGCTA,-1.23
9,CACCCTACCCCCATACTTTATTTAGCTTTA,1.53
10,ACATTCCACTCAGTCTCTTGAAATCCCAAG,-1.21
11,TGTGCTGGATGTTTCCTTTGAACTCTGCAT,2.66
12,CCTCCTCCTCCTTTTTTTTTTCAAGTGTTA,1.34
13,CTCACATGAGCTAGAGCTCGTGTCATCTCT,-1.28
14,CAGATTTAATGAAATACAGTAGACTTTTTT,-0.798
15,GGACTTCGCTCCGCCGCTAGGTGGCGGGCT,2.34
16,GTTTTCGCAGCAAGTTACACAAGTAGAATG,0.0517
17,GCAGGACAGTTTTGTGTGTTTAATGTTTTC,1.6
18,GCCCATGCTGGACCCTGGGCTTAGTTGCTC,3.2
19,CTTTTCACAGGAGAGGAGAAAGAGCAATCT,-1.19
20,TTAACGCTAAAGAGGTATCATGAGGTATAT,0.849
21,AGCTGGGAGCTGCCGCAACATTGTCCAGCA,-1.45
22,TGCTGCACTGATAAGAAAGCAAAGTCCAAC,5.11
23,CCCCTGTGCAAACTTTTTCCTTTTCTTATC,0.589
24,GTCTTACCGGGATTTTGTTGGGGAACTTTG,1.83
